In all, about 390,000 compounds went through this assay and about 4,700 (1.2%) were called active. The inconclusive results got no clear call from the source; some entries with a clear call stand among them for comparison. Calls come from the whole dose curve; as a rule, active = well fitted inhibition curve with a large enough effect; inconclusive = small, poorly fitted or top-dose-only effect, or another doubt; inactive = no such curve, though single readings can be large or run the other way. A potency beside an inconclusive call is a rough fit, not a confirmed value.
These compounds were tested against DNA polymerase eta (Homo sapiens) (UniProt Q9Y253) (assay: qHTS for Inhibitors of Polymerase Eta). Conditions: recombinant Pol eta, fluorescent DNA replication assay; series mostly up to 114 µM.
Procedure, shortened: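 Fluorescent replication assay: 50 nM final substrate added after a 15 min room-temperature compound preincubation with 10 nM enzyme. Signal taken at 0 min and again at 10 min.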
Potency is the fitted concentration of half-maximal effect; tags give direction and shape of the fitted curve.

Sequence of UniProt Q9Y253 (Q9Y253 whole entry, looked up): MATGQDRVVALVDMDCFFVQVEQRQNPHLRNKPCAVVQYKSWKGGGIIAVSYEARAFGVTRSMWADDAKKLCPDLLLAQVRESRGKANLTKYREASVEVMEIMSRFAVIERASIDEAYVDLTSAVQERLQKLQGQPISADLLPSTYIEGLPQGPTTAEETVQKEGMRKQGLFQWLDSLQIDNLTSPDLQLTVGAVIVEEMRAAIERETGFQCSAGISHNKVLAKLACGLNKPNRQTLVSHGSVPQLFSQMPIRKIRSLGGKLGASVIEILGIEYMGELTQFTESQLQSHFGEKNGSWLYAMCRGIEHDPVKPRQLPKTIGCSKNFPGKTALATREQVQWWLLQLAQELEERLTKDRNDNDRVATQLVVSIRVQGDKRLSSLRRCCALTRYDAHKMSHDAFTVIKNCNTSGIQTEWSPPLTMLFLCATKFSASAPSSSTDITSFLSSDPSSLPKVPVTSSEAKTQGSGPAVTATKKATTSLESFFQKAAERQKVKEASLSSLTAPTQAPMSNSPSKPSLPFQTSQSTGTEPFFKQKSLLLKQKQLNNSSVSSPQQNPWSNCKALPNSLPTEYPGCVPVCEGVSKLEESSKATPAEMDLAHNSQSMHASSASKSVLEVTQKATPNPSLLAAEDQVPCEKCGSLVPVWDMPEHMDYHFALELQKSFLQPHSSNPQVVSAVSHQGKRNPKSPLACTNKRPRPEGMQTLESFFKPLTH

Row | Compound | Potency
1 | CC(=O)N(C)c1ccc(N=C2C(=O)Nc3ccccc32)cc1 | inconclusive: 44.7 µM [inhibitor, partial curve]
2 | Cn1c(N)c(C(=O)COC(=O)CCc2c[nH]c3ccccc23)c(=O)n(C)c1=O | inconclusive: 14.1 µM [inhibitor, partial curve, poor fit]
3 | O=C(Nc1nc(-c2ccc3c(c2)OCO3)cs1)c1ccncc1 | inconclusive: 39.8 µM [inhibitor, single point]
4 | O=C(Nc1nc(-c2ccco2)cs1)c1ccccc1 | inconclusive: 17.8 µM [inhibitor, partial curve, poor fit]
5 | CCN(CC)S(=O)(=O)c1ccc(C)c(NC(=O)/C=C/c2cccs2)c1 | inconclusive: 25.1 µM [inhibitor, partial curve, poor fit]
6 | O=C(O)CC(c1cccc(Cl)c1)n1cccc1 (configuration not stated) | inconclusive: 12.6 µM [inhibitor, partial curve, poor fit]
7 | COc1cc(OC)cc(C(=O)Nn2cc(C(=O)N3CCN(C)CC3)c3ccccc3c2=O)c1 | inconclusive: 3.98 µM [inhibitor, partial curve, poor fit]
8 | COCCN1C(=O)C(=O)/C(=C(/O)c2ccc(S(=O)(=O)N3CCOCC3)cc2)C1c1cccc(OC)c1 (configuration not stated) | inactive
9 | CC(=O)c1ccc(NC(=O)CSc2ccsc2[N+](=O)[O-])cc1 | active: 11.2 µM
10 | O=C(COC(=O)/C=C/c1ccccc1F)Nc1nnc(-c2ccccc2)o1 | inconclusive: 50.1 µM [inhibitor, partial curve]
11 | Cc1c(Cl)cnc(NC(=O)COC(=O)[C@H](C)NC(=O)c2ccccc2)c1Cl | active: 50.1 µM
12 | O=C(CCCCCn1c(=S)[nH]c2cc3c(cc2c1=O)OCO3)N1CCN(C(=O)c2ccco2)CC1 | inconclusive: 25.1 µM [inhibitor, partial curve, poor fit]
13 | CC(=O)C1=C(O)C(=O)N(Cc2ccccc2)C1c1ccco1 (configuration not stated) | active: 44.7 µM
14 | CN(/N=C/c1ccc(O)cc1O)c1nc(-c2ccccc2)cc(-c2ccccc2)n1 | inactive
15 | Cc1cccc(N2NC(=O)/C(=C/c3ccc(-c4ccc(Cl)c(C(=O)O)c4)o3)C2=O)c1 | active: 6.31 µM
16 | NC(=O)c1ccc(N=Cc2ccc([N+](=O)[O-])s2)cc1 | active: 31.6 µM
17 | COC(=O)[C@H]1[C@H]2C[C@@H]3c4[nH]c5cc(OC)ccc5c4CCN3C[C@H]2C[C@@H](OC(=O)c2cc(OC)c(OC)c(OC)c2)[C@@H]1OC | inconclusive: 7.94 µM [inhibitor, partial curve]

— PubChem BioAssay AID588591 (National Center for Advancing Translational Sciences (NCATS), 2011)
